# Results are given in words; binding and its absence hold for the method and conditions named. Some entries that bind do so weakly or less than the wild type.
# By UniProt entry, the sequences of proteins in these tests, tags left out. Where a name states a change or a piece, a line headed by the entry shows the natural chain unless it says otherwise. Chains listed by the source or under a name are the forms on record and can include a tag or linker. Residues count along the entry.
# UniProt Q56NL1: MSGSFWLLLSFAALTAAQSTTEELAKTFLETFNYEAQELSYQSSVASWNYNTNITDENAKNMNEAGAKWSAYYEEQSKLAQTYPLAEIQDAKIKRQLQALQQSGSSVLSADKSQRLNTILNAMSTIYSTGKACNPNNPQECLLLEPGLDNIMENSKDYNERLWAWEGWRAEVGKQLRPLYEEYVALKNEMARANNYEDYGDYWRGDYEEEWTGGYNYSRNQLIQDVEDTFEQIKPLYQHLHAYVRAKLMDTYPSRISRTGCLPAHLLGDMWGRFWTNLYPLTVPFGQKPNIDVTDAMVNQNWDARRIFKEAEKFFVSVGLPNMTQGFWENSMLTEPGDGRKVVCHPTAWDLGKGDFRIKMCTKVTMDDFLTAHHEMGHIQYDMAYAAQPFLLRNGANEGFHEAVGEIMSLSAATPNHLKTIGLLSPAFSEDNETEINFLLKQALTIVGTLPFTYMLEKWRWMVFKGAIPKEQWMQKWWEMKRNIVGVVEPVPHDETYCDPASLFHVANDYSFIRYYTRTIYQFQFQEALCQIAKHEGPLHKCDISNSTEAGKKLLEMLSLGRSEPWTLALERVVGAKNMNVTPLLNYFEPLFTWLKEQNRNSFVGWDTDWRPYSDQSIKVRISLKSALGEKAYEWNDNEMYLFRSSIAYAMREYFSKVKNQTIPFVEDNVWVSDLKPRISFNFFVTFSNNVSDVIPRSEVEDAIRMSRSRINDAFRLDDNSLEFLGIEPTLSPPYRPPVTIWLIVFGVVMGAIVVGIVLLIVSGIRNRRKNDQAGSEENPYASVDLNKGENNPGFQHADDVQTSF
# civet ACE2, eGFP-tagged: residues 18-805 of Q56NL1
# civet ACE2 ectodomain fused with mouse Fc: residues 18-740 of Q56NL1
# UniProt Q56H28, residues 18-805: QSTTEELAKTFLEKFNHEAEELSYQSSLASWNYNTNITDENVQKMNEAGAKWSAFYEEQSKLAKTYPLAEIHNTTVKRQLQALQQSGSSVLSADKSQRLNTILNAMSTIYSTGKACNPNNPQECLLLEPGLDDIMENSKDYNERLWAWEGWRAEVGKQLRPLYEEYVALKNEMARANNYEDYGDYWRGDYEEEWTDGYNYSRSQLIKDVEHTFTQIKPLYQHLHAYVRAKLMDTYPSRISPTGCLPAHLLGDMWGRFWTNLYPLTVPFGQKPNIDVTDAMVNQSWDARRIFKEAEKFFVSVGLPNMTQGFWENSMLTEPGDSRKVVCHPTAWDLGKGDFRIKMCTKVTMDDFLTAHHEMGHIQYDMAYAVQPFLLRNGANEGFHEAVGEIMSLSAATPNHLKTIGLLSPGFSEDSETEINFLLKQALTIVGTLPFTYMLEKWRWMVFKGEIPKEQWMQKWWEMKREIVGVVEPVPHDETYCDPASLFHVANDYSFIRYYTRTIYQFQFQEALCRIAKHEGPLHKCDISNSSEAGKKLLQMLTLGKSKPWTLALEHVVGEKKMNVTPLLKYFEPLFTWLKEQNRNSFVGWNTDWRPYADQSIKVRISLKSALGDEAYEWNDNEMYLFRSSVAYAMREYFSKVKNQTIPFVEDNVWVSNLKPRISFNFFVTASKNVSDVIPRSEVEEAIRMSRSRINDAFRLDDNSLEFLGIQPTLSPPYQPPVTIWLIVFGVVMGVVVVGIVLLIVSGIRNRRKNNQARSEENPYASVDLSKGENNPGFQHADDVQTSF
# UniProt Q58DD0, residues 18-804: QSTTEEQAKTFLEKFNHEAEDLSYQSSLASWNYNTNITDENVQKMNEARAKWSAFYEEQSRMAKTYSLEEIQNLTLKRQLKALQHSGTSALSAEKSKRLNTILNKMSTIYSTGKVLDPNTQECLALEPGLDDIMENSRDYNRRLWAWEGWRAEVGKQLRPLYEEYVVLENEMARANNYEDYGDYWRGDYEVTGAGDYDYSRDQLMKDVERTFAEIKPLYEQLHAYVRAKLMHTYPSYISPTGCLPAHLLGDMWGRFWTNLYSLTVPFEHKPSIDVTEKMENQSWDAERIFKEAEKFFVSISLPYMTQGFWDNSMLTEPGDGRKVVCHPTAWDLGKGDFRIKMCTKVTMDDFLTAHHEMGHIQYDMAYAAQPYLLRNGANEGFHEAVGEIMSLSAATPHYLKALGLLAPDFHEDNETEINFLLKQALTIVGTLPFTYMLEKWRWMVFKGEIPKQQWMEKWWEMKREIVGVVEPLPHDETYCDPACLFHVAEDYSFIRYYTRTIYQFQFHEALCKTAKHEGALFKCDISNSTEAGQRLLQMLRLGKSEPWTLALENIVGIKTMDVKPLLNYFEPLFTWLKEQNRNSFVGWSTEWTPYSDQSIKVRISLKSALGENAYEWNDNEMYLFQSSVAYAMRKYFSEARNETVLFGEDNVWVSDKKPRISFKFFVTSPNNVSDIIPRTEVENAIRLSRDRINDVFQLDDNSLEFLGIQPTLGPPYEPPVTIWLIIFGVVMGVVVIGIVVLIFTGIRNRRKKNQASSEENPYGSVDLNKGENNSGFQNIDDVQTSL
# Legend:
# [1] = target: mouse ACE2 ectodomain fused with mouse Fc (mouse) (UniProt Q8R0I0); assay: SPR; only the binder purified
# [2] = target: civet ACE2 ectodomain fused with mouse Fc (civet) (UniProt Q56NL1); assay: SPR; only the binder purified
# [3] = target: cat ACE2, eGFP-tagged (cat) (UniProt Q56H28); assay: flow cytometry on cells; only the binder purified
# [4] = target: bovine ACE2, eGFP-tagged (bovine) (UniProt Q58DD0); assay: flow cytometry on cells; only the binder purified
# [5] = target: civet ACE2, eGFP-tagged (civet) (UniProt Q56NL1); assay: flow cytometry on cells; only the binder purified
# [6] = target: rat ACE2, eGFP-tagged (rat) (UniProt Q5EGZ1); assay: flow cytometry on cells; only the binder purified
# [7] = target: mouse ACE2, eGFP-tagged (mouse) (UniProt Q8R0I0); assay: flow cytometry on cells; only the binder purified
Substance,binding [1],binding [2],binding [3],binding [4],binding [5],binding [6],binding [7]
"SARS-CoV receptor binding domain (RBD), His-tagged (from UniProt P59594 306-527) (domain or fragment)",no binding (tested: 400 nM),binds,binds,binds,binds,no binding (tested: 1 μg/mL),no binding (tested: 1 μg/mL)
"SARS-CoV-2 NTD, His-tagged (from UniProt P0DTC2 20-286) (domain or fragment)",,,no binding (tested: 1 μg/mL),no binding (tested: 1 μg/mL),,,
